Test results reported in PubChem BioAssay AID1645882 (National Center for Advancing Translational Sciences (NCATS), 2021).
About 120 (0.75%) of roughly 16,000 compounds were called active. Another 4% or so got no clear call; they are omitted. The call rests on the fitted dose curve; in most records, active means well fitted inhibition curve with a large enough effect; inconclusive means small, poorly fitted or top-dose-only effect; inactive means no such curve, though single readings can be large or run the other way. This is one part of the list.

target: Rap guanine nucleotide exchange factor 3 (Homo sapiens) (UniProt O95398); assay: Validation qHTS for antagonist of cAMP-regulated guanine nucleotide exchange factor 3 (EPAC1); details: EPAC1 Rap1B-BODIPY-GDP exchange, fluorescence; series mostly up to 150 µM; activity change, negative = inhibition: at the top concentration;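 further: plate controls were DMSO for no effect and ATA control for full effect; nearly all actives have a fitted effect of over 75% in size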
Sequence of UniProt O95398 (O95398 whole entry, looked up): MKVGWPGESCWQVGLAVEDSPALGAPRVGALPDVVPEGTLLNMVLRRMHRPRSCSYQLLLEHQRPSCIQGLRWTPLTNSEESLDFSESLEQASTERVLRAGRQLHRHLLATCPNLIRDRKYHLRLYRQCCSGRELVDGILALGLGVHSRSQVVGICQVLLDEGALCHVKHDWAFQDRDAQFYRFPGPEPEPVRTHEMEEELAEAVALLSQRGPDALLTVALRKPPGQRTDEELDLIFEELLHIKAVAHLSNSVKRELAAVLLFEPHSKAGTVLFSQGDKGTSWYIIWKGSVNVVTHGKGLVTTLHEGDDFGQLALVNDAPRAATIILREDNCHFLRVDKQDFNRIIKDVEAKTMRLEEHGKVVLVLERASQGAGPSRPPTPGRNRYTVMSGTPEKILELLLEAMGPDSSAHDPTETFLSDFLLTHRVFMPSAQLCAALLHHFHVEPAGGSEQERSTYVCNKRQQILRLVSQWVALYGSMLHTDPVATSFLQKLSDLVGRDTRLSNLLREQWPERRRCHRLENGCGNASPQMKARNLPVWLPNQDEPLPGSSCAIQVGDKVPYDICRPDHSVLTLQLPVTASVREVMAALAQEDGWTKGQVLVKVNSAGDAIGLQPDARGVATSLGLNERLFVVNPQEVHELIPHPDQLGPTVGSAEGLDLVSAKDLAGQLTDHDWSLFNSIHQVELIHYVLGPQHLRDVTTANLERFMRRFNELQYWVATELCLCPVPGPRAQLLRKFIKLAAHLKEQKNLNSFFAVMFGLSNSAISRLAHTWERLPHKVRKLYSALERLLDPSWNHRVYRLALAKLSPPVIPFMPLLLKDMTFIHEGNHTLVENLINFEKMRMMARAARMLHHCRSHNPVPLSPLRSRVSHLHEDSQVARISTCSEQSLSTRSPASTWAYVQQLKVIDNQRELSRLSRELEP
In short: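 EPAC1 (100 nM) mixed with 250 nM RAP1B-BODIPY-GDP and 50 uM GDP; compounds in concentration series, 5 min at room temperature. Fluorescence (ex 480/em 540 nm) read every 5 min for 30 min; normalized to ATA control and DMSO.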

Activity change, negative = inhibition, inactive:
N[C@@H](C(=O)O)c1cc(O)ccc1Cl 4.84%
Cc1cc(C)c2c(C)ccnc2c1 18.1%
Cc1cc2c(c(-c3cnccn3)c1)OC(CNC(=O)c1ccccc1C(F)(F)F)C2 (configuration not stated) 10.4%
COC(=O)C1N[C@@H]([C@@H](NC(=O)COc2ccccc2)C(=O)NCc2ccc(OC)cc2)SC1(C)C (some centres not stated) -5.17%
CN(C)c1ncc2nc(-c3ccccc3)c(=O)n(CCc3ccccc3)c2n1 -1.61%
O=C(Cc1ccc(Cl)cc1)c1c(O)cc(O)cc1O -19.6%
CCOc1ccc2nc(N3CCCN(CCCn4cccn4)CC3)nc(C)c2c1 17.1%
CCCCCCCCCCCCCC[n+]1ccc(C)cc1 10.5%
CN1C[C@@H]2C[C@H]1CN2c1cc2c(cc1F)c(=O)c(C(=O)O)cn2C1CC1 20.9%
N[C@@H](Cc1c[nH]c2ccc(O)cc12)C(=O)O
CN(C)c1ncc2ncc(=O)n(C)c2n1 2.14%
O=C(O)Cc1nn(Cc2ccc(Br)cc2F)c(=O)c2ccccc12 13.9%
CC(=O)c1ccc(C(=O)NCC2Cc3cccc(-c4ncccn4)c3O2)cc1 (configuration not stated) 0.556%
COCCNc1nc(-c2ccoc2)nc2ccccc12 -26.2%
Cn1cccc1C(=O)N1CCC2(CCCN(Cc3ccncc3)C2)CC1 15.2%
COc1ccc(NC(=O)N2CC3(CCN(C(=O)c4cnccn4)CC3)C2)cc1 -0.0013%
OCc1ccc(Cl)cc1Cl 17.7%
CCCCC(CC)CCC(CC(C)C)OS(=O)(=O)O (configuration not stated)
COc1ccc(NC(=O)N2CC[C@@]3(CCCN(C(=O)c4cccc(F)c4)C3)C2)cc1 32.6%
O=C(c1cnccn1)N1CCC[C@@]2(CCN(c3ncccn3)C2)C1 12.7%
COc1ncc2nc(-c3ccccc3)c(=O)n(C[C@H]3CCCO3)c2n1 9.58%
CN1C[C@H](C(=O)N[C@]2(C)O[C@@]3(O)[C@@H]4CCCN4C(=O)[C@H](Cc4ccccc4)N3C2=O)C[C@@H]2c3cccc4[nH]cc(c34)C[C@H]21
CN(Cc1ccco1)c1ncnc2ccc(-c3ccccc3Cl)cc12 -23.5%
COc1ccc(-n2c(=O)c(C)nc3cnc(Nc4ccccc4)nc32)cc1 11%
O=C(O)COCCN1CCN(C(c2ccccc2)c2ccc(Cl)cc2)CC1 (configuration not stated)
N[C@@H]1CONC1=O
COc1ccc2c(=O)c(C)c(-c3ccccc3)oc2c1CN(C)C 20.1%
COc1ccc(-c2nc3cnc(OC)nc3n(C)c2=O)cc1 11.1%
COc1cccc(Cn2c(=O)c(-c3cn(C)c4ccccc34)nc3cncnc32)c1 1.19%
Cn1c(=O)c(-c2ccccc2)nc2cnc(OCc3ccccc3)nc21 6.83%
COCCn1c(=O)c(-c2cn(C)c3ccccc23)nc2cnc(N3CCOCC3)nc21 4.28%
CC(C)N=c1cc2n(-c3ccc(Cl)cc3)c3ccccc3nc-2cc1Nc1ccc(Cl)cc1 15.3% [at 75.8 µM]
COCC(=O)N1CCC[C@@]2(CCN(Cc3ccc(C#N)cc3)C2)C1 9.95%
COCCNc1cc(-c2ccccc2C(F)(F)F)ncn1 25.6%
O=C(c1ccco1)N1CCC2(CCCN(c3ccncc3)C2)CC1 15.8%
CC(=O)OC[C@H]1O[C@@H](n2ncc(=O)[nH]c2=O)[C@H](OC(C)=O)[C@@H]1OC(C)=O 4.2%
CCCOC(=O)c1cc(O)c(O)c(O)c1 -15.6%
CN1CCCc2cc(/C=C/c3ccnc4ccccc34)ccc21 40%
c1nc(NCCN2CCOCC2)c2cc(-c3ccc4c(c3)OCO4)ccc2n1 -10.8%
O=C(c1csnn1)N1CCC2(CCCN(C(c3ccccc3)c3ccccc3)C2)CC1 -12.6%
CC(=O)O[C@]1(C(C)=O)CC[C@H]2[C@@H]3C=C(Cl)C4=CC(=O)[C@@H]5C[C@@H]5[C@]4(C)[C@H]3CC[C@@]21C
COc1ccc(C(=O)NCc2nc(-c3ccccc3NC(=O)c3cc(C)oc3C)oc2C)cc1F 3.87%
O=C(O)C1CCCN(CCC=C(c2ccccc2)c2ccccc2)C1 (configuration not stated)
CCCCCCCCCCCCCCCC[n+]1ccc(/C=C/c2c[nH]c3ccccc23)cc1 88.9%
CC1(C)OC2CC3C4CC(F)C5=CC(=O)C=CC5(C)C4C(O)CC3(C)[C@]2(C(=O)CO)O1 (some centres not stated) -9%
N=C(N)c1ccc(/C=C/c2ccc(C(=N)N)cc2O)cc1 14.3%
C[C@H]1CN(C2CCCCC2)C(=O)[C@@H]1CC(=O)NCc1ccccc1 8.55%
O=S1(=O)CCOCCCN1Cc1cccc(F)c1 8.06%
C[C@@H]1C(=O)CC2C(C)(C)CCC[C@]2(C)[C@@]1(O)CCc1ccoc1 (some centres not stated) -5.75%
CC(C)N1CCN(C(=O)c2cnn(-c3nccc(-c4ccc5c(c4)OCO5)n3)c2-c2ccco2)CC1 7.16%
CSc1ccccc1C(=O)NCC1Cc2cccc(-c3ncccc3C)c2O1 (configuration not stated) 0.746%
Cc1cc(-n2c(=O)[nH]c(=O)n(C)c2=O)ccc1Oc1ccc(S(=O)(=O)C(F)(F)F)cc1 29.3%
CCCc1c2oc(C(=O)O)cc(=O)c2cc2c(=O)cc(C(=O)O)n(CC)c12 27.3%
COc1cc2c(cc1OC)[C@@H](Cc1cc(OC)c(OC)c(OC)c1)[N+](C)(CCCOC(=O)CC/C=C/CCC(=O)OCCC[N+]1(C)CCc3cc(OC)c(OC)cc3[C@H]1Cc1cc(OC)c(OC)c(OC)c1)CC2 (some centres not stated)
Oc1cc(O)c2c(c1)OC(c1cc(O)c(O)c(O)c1)C(O)C2 (configuration not stated) -8.05%
CC(=O)OCC(=O)[C@@]12OC(C)(C)OC1CC1C3CC(F)C4=CC(=O)C=C[C@@]4(C)[C@@]3(F)C(O)C[C@]12C (some centres not stated) 12.9%
COC(=O)/C=C/c1cc(F)ccc1S(=O)(=O)NC(C)(C)C -7.45%
Cc1cc(C)nc(-c2cccc3c2OC(CNC(=O)c2ccc(Cn4nc(C)cc4C)cc2)C3)n1 (configuration not stated) 21.2%
O=C1CCC[C@@H]2C[C@@]3(C[C@@H]4CCN1[C@H]24)Nc1ccccc1NC3=NCc1ccccc1 14%
COC(=O)C[C@H]1c2cc(F)ccc2S(=O)(=O)N1c1ccc(N(C)C)cc1 8.66%
OCC1CCCN(c2nc3cc4c(cc3cc2CNCc2cccc(C(F)(F)F)c2)OCO4)C1 (configuration not stated) 9.65%
O=C1c2ccccc2C(=O)C1c1ccc(Cl)cc1 7.48%
CC(=O)Oc1ccc(C(=C2CCCCC2)c2ccc(OC(C)=O)cc2)cc1 17.7%
COc1ccc2cc([C@H](C)CO)ccc2c1 12%
O=C(c1cc(C(F)(F)F)cc(C(F)(F)F)c1)N1CCC[C@@]2(CCN(Cc3ccncc3)C2)C1 -7.95%
O=C(O)c1ccccn1 26.9%
CN(Cc1ccco1)c1ccnc(-c2cccnc2)n1 17.4%
Cc1ncc(CO)c(CO)c1O 21%
Nc1nnnn1-c1ccccc1 17.2%
COc1ccccc1C1CN(CCNC(=O)c2sccc2Cl)Cc2ccccc2O1 (configuration not stated) 5.98%
CN1CCc2cc(Cl)c(O)cc2[C@@H](c2ccccc2)C1
COc1ccccc1CNc1ncncc1-c1ccc2c(c1)OCO2 1.36%
Nc1ccc(N2C(=O)c3ccccc3C2=O)c(Cl)c1 -7.69% [at 75.8 µM]
CCNc1ncc2nc(-c3ccccc3)c(=O)n(C)c2n1 17.3%
Cn1c(=O)c(-c2ccc(Cl)cc2)nc2cnc(OCc3ccccc3)nc21 17.8%
Cc1nc(-c2ccc(Cl)cc2)oc1COC(C)(C)C(=O)O 16.6%
COCCn1c(=O)c(-c2ccc(OC)cc2)nc2cnc(Oc3cccc(Cl)c3)nc21 0.216%
CS(=O)(=O)N1CCC[C@@]2(CCN(C(=O)Nc3ccccc3)C2)C1 0.658%
CC1(C)[C@H](C(=O)O)N2C(=O)C[C@H]2S1(=O)=O 10.6%
NC1C(O)OC(CO)[C@@H](O)[C@@H]1O[C@H]1O[C@@H](C(=O)O)C(O)C(O)C1O (some centres not stated) 5.68%
C=CS(=O)(=O)O -4.33%
NC(=O)[C@@H]1CCCN1C(=O)CCN1Cc2ccccc2OC(c2ccccc2F)C1 (some centres not stated) 8.63%
O=C(c1cn(C2CCCN(Cc3cc(Cl)ccc3O)C2)nn1)N1CCCCC1 (configuration not stated) -7.71%
O=c1cnc2cnc(Oc3cccc(Cl)c3)nc2n1Cc1ccc(F)cc1 8.02%
COc1cc2c3cc1Oc1cc(ccc1O)C[C@@H]1c4c(cc(OC)c(O)c4Oc4ccc(cc4)C[C@@H]3N(C)CC2)CC[N+]1(C)C -8.45%
COC(=O)CC1C(C)(C)C(O)C2CC3=C4C=C(OC)OC(c5ccoc5)[C@]4(C)CCC3[C@@]1(C)C2=O (some centres not stated) -21.5%
CC(C)CN1CCC(=O)N(CCN=[N+]=[N-])CC1 -0.957%
CC(C)c1c(O)c(-c2cc3c(c(C(C)C)c2O)CCC2C(C)(C)CCC[C@@]32C)cc2c1CCC1C(C)(C)CCC[C@@]21C (some centres not stated) -2.5%
CC(=O)Nc1ccccc1-c1nc(CNC(=O)c2ccc(F)c(F)c2)c(C)o1 5.89%
Nc1ccc([N+](=O)[O-])cc1O -28% [at 320 µM]
COc1ncc2nc(-c3ccccc3)c(=O)n(CCc3ccccc3)c2n1 6.89%
COc1cc(C(=O)NCCCCCC(=O)O)cc(OC)c1OC -9.65%
Cc1noc(C)c1-c1cc(N(C)Cc2ccco2)ncn1 18.6%
Cc1ccnn1CC(=O)N1CCOc2c(cc(-c3ncc(C(F)(F)F)cc3Cl)cc2OCC2CCCO2)C1 (configuration not stated) 1.92%
COCCNc1nc(-c2cccc(OC)c2)nc2ccccc12 0.815%
COc1ccc(-c2nc3cnc(OC)nc3n(Cc3cccc(OC)c3)c2=O)cc1 9.99%
CC1=C(C(=O)O)N2C(=O)[C@@H](NC(=O)[C@H](N)C3=CCC=CC3)[C@H]2SC1 -3.08%
N[C@@H](CCC(=O)N[C@@H](CS)C(=O)NCC(=O)O)C(=O)O 17%
COc1cccc(Cn2c(=O)c(-c3ccc(Cl)cc3)nc3cnc(N4CCOCC4)nc32)c1 -6.74%
OC[C@]1(O)OC[C@@H](O)[C@H](O)[C@@H]1O 3.71%
Cc1occc1C(=O)NCCN1Cc2ccccc2OC(c2ccccc2F)C1 (configuration not stated) -5.13%
Cc1ccc(S[C@@H](CCN2CC[C@H](NC(=O)OCc3ccccc3)CCC2=O)c2ccccc2)cc1 2.09%
